# According to PubChem BioAssay (Tox21):
# Several values for one entry are separate records, joined by “and”; a condition that tells them apart may be missing. Equal entries are not always repeated. Inconclusive means that the source gave no clear call. Such entries were picked first, then a sample of the others. For part of these data: Potencies of inconclusive entries are left out as doubtful fits. A structure can be active in one record and inactive in another. Activity calls are given as the source filed them. Unless noted, calls come from the whole dose curve; as a rule, active = well fitted curve in the direction sought with a large enough effect in the repeat runs; inconclusive = weak or mixed curves; inactive = no such curve, though single readings can be large; an effect the other way counts as inactive or inconclusive.
# Target: Estrogen receptor (Homo sapiens) (UniProt P03372)
# Sequence of UniProt P03372 (P03372 whole entry, looked up): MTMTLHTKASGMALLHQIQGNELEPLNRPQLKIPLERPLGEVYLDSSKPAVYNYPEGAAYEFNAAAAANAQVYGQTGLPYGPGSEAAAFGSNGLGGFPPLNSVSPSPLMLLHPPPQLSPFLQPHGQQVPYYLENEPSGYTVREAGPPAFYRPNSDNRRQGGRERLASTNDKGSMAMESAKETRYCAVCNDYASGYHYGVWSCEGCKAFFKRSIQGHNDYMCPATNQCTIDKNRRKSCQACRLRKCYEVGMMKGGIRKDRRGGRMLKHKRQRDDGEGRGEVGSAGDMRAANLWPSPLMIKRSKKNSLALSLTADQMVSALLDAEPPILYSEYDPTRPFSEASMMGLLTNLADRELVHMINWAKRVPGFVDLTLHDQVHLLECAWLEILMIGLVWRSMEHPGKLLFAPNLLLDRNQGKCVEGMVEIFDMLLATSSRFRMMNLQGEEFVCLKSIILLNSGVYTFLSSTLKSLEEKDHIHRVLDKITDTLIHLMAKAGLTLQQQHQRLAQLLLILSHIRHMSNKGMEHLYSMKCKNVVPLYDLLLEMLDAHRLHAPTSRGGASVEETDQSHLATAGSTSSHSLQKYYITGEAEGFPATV
# Assay: qHTS assay to identify small molecule agonists of the estrogen receptor alpha (ER-alpha) signaling pathway using the BG1 cell line (AID 743079); note: nearly all actives have a fitted effect of over 20% in size
# Settings: BG1Luc4E2 cells, ERE-luciferase agonist, 22 h; activation: at 70.3 µM (top of the series) unless noted
# % is set by controls: 0 for no effect and ±100 for the full control effect; potency is the fitted concentration of half-maximal effect; tags give direction and shape of the fitted curve.
SMILES,Potency,activation
CCCCCCCCCCCCCCCCCCO,inactive,–
CN1[C@@H]2CC(OC(=O)[C@H](CO)c3ccccc3)C[C@H]1[C@@H]1O[C@@H]12 (some centres not stated),active: 23.7 µM and active: 48.6 µM,–
[O-][n+]1cccc(CO)c1,–,inconclusive: 8.8% [phenotype inactive]
CCCO,inactive,–
O=C(O)CNC(=O)c1ccccc1I,inactive,–
NCCOCCO,inactive,–
CC(CN)CCCN (configuration not stated),–,inconclusive: 10.8% [phenotype inactive]
C=C(C)c1cccc(C(=C)C)c1,–,inconclusive: -2.58% [phenotype inactive]
O=C(/C=C/c1ccccc1)OC/C=C/c1ccccc1,active: 30.6 µM,–
COC(=O)NN,inactive,–

# System: not listed separately
# Assay: qHTS assay to identify small molecule antagonists of the estrogen receptor alpha (ER-alpha) signaling pathway using the BG1 cell line (AID 743080; calls by dose curve;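 note: BG1 cells stimulated with 17beta-estradiol alongside compound; nearly all actives have a fitted effect of over 25% in size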)
# Settings: BG1Luc4E2 ERE-luciferase antagonist mode, luminescence; activity change, negative = inhibition: at 70.3 µM (top of the series) unless noted
# Outline: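 BG1Luc4E2, endogenous ER-alpha, 4xERE-luc; 5 d charcoal-stripped FBS, phenol red free; 24 h plating; cpd + 17beta-estradiol 21.5 h, 37 C/5% CO2; CellTiter-Fluor viability 30 min, then ONE-Glo luciferase 30 min RT.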
SMILES,Potency,"activity change, negative = inhibition"
CN1[C@@H]2CC(OC(=O)[C@H](CO)c3ccccc3)C[C@H]1[C@@H]1O[C@@H]12 (some centres not stated),inactive,–
CC(CC=O)c1ccccc1 (configuration not stated),inactive,–
CN(C)C(=O)Oc1cccc([N+](C)(C)C)c1,inactive,–
Cc1nc2c([nH]1)c(=O)n(C)c(=O)n2Cc1ccco1,–,inconclusive: -22.4%
C/C(C=O)=C\c1ccccc1,"inconclusive [rising, partial curve]",–
CCCc1ccc(N)cc1,–,inconclusive: 24%
CCCO,inactive,–
CC(=O)Oc1cccc(O)c1,–,inconclusive: -10.2%
NCCOCCO,inactive,–

# System: not listed separately
# Assay: qHTS assay to identify small molecule antagonists of the estrogen receptor alpha (ER-alpha) signaling pathway using the BG1 cell line - cell viability counter screen (AID 743081);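 note: compound given together with 17beta-estradiol as the ER stimulus; nearly all actives have a fitted effect of over 45% in size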
# Settings: BG1Luc4E2 viability, CellTiter-Fluor, 22 h; series mostly up to 70.3 µM
row,SMILES,Potency
1,CC(C)(C)c1ccccc1,inactive
2,CCCCCCCCCCCCCCCCCCO,inactive
3,CS(=O)(=O)Nc1ccc([N+](=O)[O-])cc1Oc1ccccc1,"inconclusive [cytotoxic, partial curve, poor fit]"
4,CN(C)C(=O)Oc1cccc([N+](C)(C)C)c1,inactive
5,Cn1c(=O)c2c(ncn2CCO)n(C)c1=O,inactive
6,CC(=O)c1ccc(C(C)=O)cc1,inactive
7,CC(CN)CCCN (configuration not stated),inactive
8,C=C(C)c1cccc(C(=C)C)c1,"inconclusive [rising, partial curve, poor fit]"
9,O=S(=O)(O)CCS,inactive
10,Cc1c(N)c(=O)n(-c2ccccc2)n1C,"inconclusive [cytotoxic, single point]"
11,NS(=O)(=O)c1ccc(NC(=O)CCC(=O)O)cc1,inactive
12,OC[C@H]1O[C@H](O[C@H]2O[C@H](CO)[C@@H](O)[C@H](O)[C@H]2O)[C@H](O)[C@@H](O)[C@@H]1O,"inconclusive [cytotoxic, partial curve, poor fit]"
13,CC/C=C\CCOC(C)=O,inactive
14,O=C1c2ccccc2C(=O)c2c1ccc(O)c2O,inactive
15,Cc1cccc(C(=O)O)c1O,inactive
16,Cc1c(Cl)cccc1[N+](=O)[O-],inactive
17,O=C(O)CCCc1c[nH]c2ccccc12,inactive

# Target: Aromatase (Homo sapiens) (UniProt P11511)
# Sequence of UniProt P11511 (P11511 whole entry, looked up): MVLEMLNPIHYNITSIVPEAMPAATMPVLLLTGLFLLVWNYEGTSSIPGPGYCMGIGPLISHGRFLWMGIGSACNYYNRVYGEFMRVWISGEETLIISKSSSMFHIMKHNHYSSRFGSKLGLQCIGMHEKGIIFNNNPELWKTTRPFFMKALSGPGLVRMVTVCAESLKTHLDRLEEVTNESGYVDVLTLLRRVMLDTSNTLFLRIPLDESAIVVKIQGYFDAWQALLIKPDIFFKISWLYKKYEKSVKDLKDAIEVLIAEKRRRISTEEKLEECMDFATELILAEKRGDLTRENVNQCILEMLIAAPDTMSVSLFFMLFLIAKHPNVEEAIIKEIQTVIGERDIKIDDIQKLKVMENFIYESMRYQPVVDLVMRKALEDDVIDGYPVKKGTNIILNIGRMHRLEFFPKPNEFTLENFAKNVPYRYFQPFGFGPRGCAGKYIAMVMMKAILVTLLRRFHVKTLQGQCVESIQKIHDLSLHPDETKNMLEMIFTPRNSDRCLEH
# Assay: qHTS assay to identify aromatase inhibitors (AID 743083); note: nearly all actives have a fitted effect of over 55% in size
# Settings: MCF-7 aro ERE, testosterone-driven ERE luciferase, 24 h; series mostly up to 70.3 µM
SMILES,Potency,"activity, negative = inhibition"
CCCCNS(=O)(=O)c1ccc(C)cc1,"inconclusive [inhibitor, partial curve, poor fit]",–
C=CCCCCCCCCCCCCCCCC,–,inactive: 12.3% [at 8.47 µM]
CC[N+](CC)(CC)CCOC(=O)C(C1CCCC1)C1CCCC1,inactive,–
COC(=O)NN,inactive,–

# System: not listed separately
# Assay: qHTS assay to identify aromatase inhibitors - cell viability counter screen (AID 743084);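 note: cells stimulated with testosterone during compound exposure; nearly all actives have a fitted effect of over 55% in size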
# Settings: MCF-7 aro ERE viability, CellTiter-Fluor, 24 h; activity change, negative = cytotoxicity: at 70.3 µM (top of the series)
row,SMILES,Potency
1,CCn1cc(C(=O)O)c(=O)c2ccc(C)nc21,"inconclusive [rising, full curve, poor fit]"
2,CC(CC(=O)O)CC(C)(C)C (configuration not stated),"inconclusive [cytotoxic, single point]"
3,CC(C)COC(=O)COc1cc(Cl)c(Cl)cc1Cl,inactive
4,CS(=O)(=O)Nc1ccc([N+](=O)[O-])cc1Oc1ccccc1,"inconclusive [cytotoxic, partial curve]"
5,O=C(O)c1cccc(Oc2ccccc2)c1,"inconclusive [rising, partial curve, poor fit]"
6,O=C(O)c1cc(C(=O)O)cc(S(=O)(=O)O)c1,inactive
7,O=C1NCCN1CCO,"inconclusive [rising, partial curve]"
8,[O-][n+]1cccc(CO)c1,"inconclusive [rising, partial curve, poor fit]"
9,CC(=O)Oc1cccc(O)c1,inactive
10,O=C(O)CNC(=O)c1ccccc1I,inactive
11,CN(C)C(=O)Nc1ccccc1,inactive
12,O=C(/C=C/c1ccccc1)OC/C=C/c1ccccc1,inactive
13,NS(=O)(=O)c1ccc(NC(=O)CCC(=O)O)cc1,inactive
14,OC[C@H]1O[C@H](O[C@H]2O[C@H](CO)[C@@H](O)[C@H](O)[C@H]2O)[C@H](O)[C@@H](O)[C@@H]1O,inactive
15,O=C1c2ccccc2C(=O)c2c1ccc(O)c2O,"inconclusive [cytotoxic, partial curve, poor fit]"
16,COC(=O)c1ccccc1Cl,inactive
17,COC(=O)NN,inactive
